These are yes or no findings as the source states them, for the method shown. In cells and extracts the contact can be indirect. Some results given as binding are weak or reduced against the parent protein; the word gives no strength. One block for each molecule: values may come before it.
What was measured:
Assay in all cases: co-IP; mouse cortical tissue extract, 1 ug/ul; 10 ug antibody in 200 ul overnight at 4°C, protein A-sepharose beads 2 hr at 4°C; rinsed three times with binding buffer and once with binding buffer containing 500 mM NaCl; Western blot
[1] = target: T1, SIL1 (mouse (endogenous in mouse cortical tissue)) (UniProt Q9EPK6)
T1 sequence: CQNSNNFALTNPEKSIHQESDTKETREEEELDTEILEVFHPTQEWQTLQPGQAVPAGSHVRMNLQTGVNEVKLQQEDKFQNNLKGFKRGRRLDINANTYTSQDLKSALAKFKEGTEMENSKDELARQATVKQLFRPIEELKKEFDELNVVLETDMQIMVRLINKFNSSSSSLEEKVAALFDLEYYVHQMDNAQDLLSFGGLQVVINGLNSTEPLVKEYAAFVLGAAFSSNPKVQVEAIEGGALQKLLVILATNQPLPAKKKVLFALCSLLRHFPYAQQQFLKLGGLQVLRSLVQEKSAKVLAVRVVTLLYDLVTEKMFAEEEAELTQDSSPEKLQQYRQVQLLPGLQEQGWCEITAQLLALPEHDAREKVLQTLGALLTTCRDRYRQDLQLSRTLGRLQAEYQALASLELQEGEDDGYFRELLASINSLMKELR

By UniProt entry, the sequences of proteins in these tests, tags left out. Residues count along the entry.
UniProt Q924X6, residues 29-996: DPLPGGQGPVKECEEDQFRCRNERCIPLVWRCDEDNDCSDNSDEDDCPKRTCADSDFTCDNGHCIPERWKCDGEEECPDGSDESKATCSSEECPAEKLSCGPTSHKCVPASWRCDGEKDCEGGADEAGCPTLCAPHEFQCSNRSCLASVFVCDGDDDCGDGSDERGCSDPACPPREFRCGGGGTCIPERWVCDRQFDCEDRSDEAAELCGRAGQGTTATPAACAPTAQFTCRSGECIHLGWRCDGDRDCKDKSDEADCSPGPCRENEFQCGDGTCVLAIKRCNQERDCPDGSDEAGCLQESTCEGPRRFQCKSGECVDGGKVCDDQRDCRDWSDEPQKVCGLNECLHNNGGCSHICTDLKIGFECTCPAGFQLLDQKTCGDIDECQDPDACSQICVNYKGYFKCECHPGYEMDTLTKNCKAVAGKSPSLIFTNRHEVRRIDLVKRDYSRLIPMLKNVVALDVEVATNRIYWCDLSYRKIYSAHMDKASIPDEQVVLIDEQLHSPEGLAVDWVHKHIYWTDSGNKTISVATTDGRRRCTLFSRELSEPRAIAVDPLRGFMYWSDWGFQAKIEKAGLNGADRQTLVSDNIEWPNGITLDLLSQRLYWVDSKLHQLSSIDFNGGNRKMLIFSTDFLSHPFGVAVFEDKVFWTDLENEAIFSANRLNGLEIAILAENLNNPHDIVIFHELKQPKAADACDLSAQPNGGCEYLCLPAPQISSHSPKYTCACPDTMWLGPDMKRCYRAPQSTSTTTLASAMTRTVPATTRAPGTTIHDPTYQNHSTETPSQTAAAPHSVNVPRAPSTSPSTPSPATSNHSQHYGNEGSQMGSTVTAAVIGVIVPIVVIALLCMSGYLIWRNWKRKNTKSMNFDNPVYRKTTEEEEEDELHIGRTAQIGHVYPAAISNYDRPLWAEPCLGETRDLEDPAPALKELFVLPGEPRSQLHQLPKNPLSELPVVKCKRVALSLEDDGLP
UniProt P98156, residues 28-873: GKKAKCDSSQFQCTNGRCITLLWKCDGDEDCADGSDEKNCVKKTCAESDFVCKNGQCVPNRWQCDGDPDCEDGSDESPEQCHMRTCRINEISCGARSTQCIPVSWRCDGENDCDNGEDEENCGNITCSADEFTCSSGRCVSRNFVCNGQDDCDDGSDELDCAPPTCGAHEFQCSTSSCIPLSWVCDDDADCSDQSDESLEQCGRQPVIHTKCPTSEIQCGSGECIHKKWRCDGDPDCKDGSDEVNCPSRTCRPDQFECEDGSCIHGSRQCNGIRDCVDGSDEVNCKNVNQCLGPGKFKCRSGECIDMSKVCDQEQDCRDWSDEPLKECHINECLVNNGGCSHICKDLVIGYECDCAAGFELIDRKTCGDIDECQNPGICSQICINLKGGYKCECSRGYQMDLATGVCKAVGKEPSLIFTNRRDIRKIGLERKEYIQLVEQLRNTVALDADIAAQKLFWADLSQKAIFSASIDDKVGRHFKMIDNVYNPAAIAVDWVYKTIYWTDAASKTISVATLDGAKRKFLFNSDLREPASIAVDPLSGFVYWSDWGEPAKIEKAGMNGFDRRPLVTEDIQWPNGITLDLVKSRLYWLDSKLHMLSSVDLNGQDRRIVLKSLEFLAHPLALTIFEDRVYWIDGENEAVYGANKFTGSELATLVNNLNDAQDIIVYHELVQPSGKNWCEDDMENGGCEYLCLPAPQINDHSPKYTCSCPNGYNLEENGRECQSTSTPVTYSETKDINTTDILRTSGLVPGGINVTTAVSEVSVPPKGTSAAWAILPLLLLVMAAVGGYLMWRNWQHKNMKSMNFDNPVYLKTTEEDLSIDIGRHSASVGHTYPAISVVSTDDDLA
UniProt Q01097, residues 27-1482: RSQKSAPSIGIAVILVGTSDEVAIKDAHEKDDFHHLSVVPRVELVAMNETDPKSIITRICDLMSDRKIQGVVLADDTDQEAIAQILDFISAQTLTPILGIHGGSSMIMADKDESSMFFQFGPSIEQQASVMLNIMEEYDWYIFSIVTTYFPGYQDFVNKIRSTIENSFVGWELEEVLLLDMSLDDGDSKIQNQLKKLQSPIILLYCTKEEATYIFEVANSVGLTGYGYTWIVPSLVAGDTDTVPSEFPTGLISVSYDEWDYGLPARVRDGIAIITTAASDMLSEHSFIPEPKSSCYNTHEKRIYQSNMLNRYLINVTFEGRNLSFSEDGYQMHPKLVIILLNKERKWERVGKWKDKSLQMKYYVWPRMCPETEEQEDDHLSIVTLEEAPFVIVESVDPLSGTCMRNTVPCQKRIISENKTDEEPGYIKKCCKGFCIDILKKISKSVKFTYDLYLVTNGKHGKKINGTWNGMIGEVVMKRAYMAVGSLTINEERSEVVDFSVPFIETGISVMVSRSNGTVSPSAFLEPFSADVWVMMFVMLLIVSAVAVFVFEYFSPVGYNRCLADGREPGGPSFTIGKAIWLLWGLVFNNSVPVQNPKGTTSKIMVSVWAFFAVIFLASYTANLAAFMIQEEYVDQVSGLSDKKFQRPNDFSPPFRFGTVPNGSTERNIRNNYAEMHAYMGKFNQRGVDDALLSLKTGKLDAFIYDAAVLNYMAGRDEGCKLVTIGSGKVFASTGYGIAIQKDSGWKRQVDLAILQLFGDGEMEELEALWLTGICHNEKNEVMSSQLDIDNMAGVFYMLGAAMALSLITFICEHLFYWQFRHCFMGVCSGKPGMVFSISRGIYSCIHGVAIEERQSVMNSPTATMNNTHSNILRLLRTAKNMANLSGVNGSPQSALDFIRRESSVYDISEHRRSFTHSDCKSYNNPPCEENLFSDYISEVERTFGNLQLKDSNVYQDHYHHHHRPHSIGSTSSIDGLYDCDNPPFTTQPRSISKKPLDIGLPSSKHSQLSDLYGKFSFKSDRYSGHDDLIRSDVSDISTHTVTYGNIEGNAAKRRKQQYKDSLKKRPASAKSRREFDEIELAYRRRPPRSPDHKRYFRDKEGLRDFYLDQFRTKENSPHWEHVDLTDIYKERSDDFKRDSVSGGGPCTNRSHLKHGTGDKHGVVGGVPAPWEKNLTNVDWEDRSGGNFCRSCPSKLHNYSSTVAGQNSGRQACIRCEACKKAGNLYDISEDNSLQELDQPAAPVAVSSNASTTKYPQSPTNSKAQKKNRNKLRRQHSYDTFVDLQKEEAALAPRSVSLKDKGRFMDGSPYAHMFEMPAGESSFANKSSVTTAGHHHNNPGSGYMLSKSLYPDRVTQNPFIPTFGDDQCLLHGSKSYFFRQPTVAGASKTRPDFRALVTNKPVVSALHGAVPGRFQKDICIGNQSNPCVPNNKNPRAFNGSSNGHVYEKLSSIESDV

[2] = target: GluN2A (mouse (endogenous in mouse cortical tissue)) (UniProt P35436)
[3] = target: ApoER2 (mouse (endogenous in mouse cortical tissue)) (UniProt Q924X6)
[4] = target: VLDLR (mouse (endogenous in mouse cortical tissue)) (UniProt P98156)
[5] = target: GluN2B (mouse (endogenous in mouse cortical tissue)) (UniProt Q01097)

binding [1]: binds
Molecule: GluN2A (from UniProt P35436 23-1464) (receptor)

binding [2]: binds
binding [3]: binds
binding [4]: binds
binding [5]: no binding
B1: SIL1 (protein, UniProt Q9EPK6 32-465)
chain: T1 sequence
